# Some of the results follow.
# B1: Pwp4 (Candida glabrata) (protein)
# chain: MGSSHHHHHHSSGLVPRGSHMASVGNPITVSNVCSFPKNWHRTAGFRALTARLGIGIQSDSYKELLNYPGTFQLTTQQSSTTKPNFQISGLVGNIYGLTIVPSYLLVELTGYFVPPVSGEYTFSLEGSDDAAIIFIANPSTFKCGHVEDWPTAYDNDVTVTESIHATRTIYMIEGVAYPIRIAYYNGLSLGKLQASFTDPEGVKRVDWNGYIWRYDSCDTCSYV
# Assays:
# Test in all cases: glycan array binding signal (z-score within array); higher = stronger binding
# Settings in all cases: glycan notation: IUPAC condensed, linker removed
# [1] = target: Gal(b1-4)GlcNAc(b1-3)Gal(b1-4)GlcNAc(b1-6)[Gal(b1-3)]GalNAc
# Summary of the method: (§1)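 The binding signal is a Z-score computed within each array. Data were drawn from 3228 arrays in the Consortium for Functional Glycomics database, restricted to those with a known protein sequence. Scores were averaged over arrays of the same protein sequence at different concentrations or buffers, and over linkers, and negative values can be taken as non-binding.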
# [2] = target: Gal(b1-4)GlcNAc(b1-3)Gal(b1-4)[Fuc(a1-3)]GlcNAc(b1-3)Gal(b1-4)[Fuc(a1-3)]GlcNAc
# Summary of the method: as §1
# [3] = target: Gal(b1-4)GlcNAc(b1-3)GalNAc
# Summary of the method: as §1
# [4] = target: Gal(b1-4)GlcNAc(b1-3)[Fuc(a1-3)GlcNAc(b1-6)]Gal(b1-4)Glc
# Summary of the method: as §1
# [5] = target: Gal(b1-4)GlcNAc(b1-3)[Gal(b1-4)GlcNAc(b1-6)]Gal(b1-4)GlcNAc
# Summary of the method: as §1
# [6] = target: Gal(b1-4)GlcNAc(b1-3)[GlcNAc(b1-6)]Gal(b1-4)GlcNAc
# Summary of the method: as §1
# [7] = target: Gal(b1-4)GlcNAc(b1-6)Gal(b1-4)GlcNAc
# Summary of the method: as §1
# [8] = target: Gal(b1-4)GlcNAc(b1-6)GalNAc
# Summary of the method: as §1
# [9] = target: Gal(b1-4)GlcNAc(b1-6)[Gal(b1-3)]GalNAc
# Summary of the method: as §1
# [10] = target: Gal(b1-4)GlcNAc(b1-6)[Gal(b1-4)GlcNAc(b1-3)]GalNAc
# Summary of the method: as §1
# Gal(b1-4)GlcNAc6P = target: Gal(b1-4)GlcNAc6P
# Summary of the method: as §1
# Gal(b1-6)Gal = target: Gal(b1-6)Gal
# Summary of the method: as §1
# Gal3S(b1-3)GalNAc = target: Gal3S(b1-3)GalNAc
# Summary of the method: as §1
# Gal3S(b1-3)GlcNAc = target: Gal3S(b1-3)GlcNAc
# Summary of the method: as §1
# [11] = target: Gal3S(b1-3)[Fuc(a1-4)]GlcNAc
# Summary of the method: as §1
# Gal3S(b1-4)Glc = target: Gal3S(b1-4)Glc
# Summary of the method: as §1
# Gal3S(b1-4)Glc6S = target: Gal3S(b1-4)Glc6S
# Summary of the method: as §1
# Gal3S(b1-4)GlcNAc = target: Gal3S(b1-4)GlcNAc
# Summary of the method: as §1
# [12] = target: Gal3S(b1-4)[Fuc(a1-3)]Glc6S
# Summary of the method: as §1
# [13] = target: Gal3S(b1-4)[Fuc(a1-3)]GlcNAc
# Summary of the method: as §1
# [14] = target: Gal3S(b1-4)[Fuc(a1-3)]GlcNAc6S
# Summary of the method: as §1
# Gal3S4S(b1-4)GlcNAc = target: Gal3S4S(b1-4)GlcNAc
# Summary of the method: as §1
# Gal3S6S(b1-4)GlcNAc = target: Gal3S6S(b1-4)GlcNAc
# Summary of the method: as §1
# Gal3S6S(b1-4)GlcNAc6S = target: Gal3S6S(b1-4)GlcNAc6S
# Summary of the method: as §1
# Gal4S(b1-4)GlcNAc = target: Gal4S(b1-4)GlcNAc
# Summary of the method: as §1
# Gal4S6S(b1-4)GlcNAc = target: Gal4S6S(b1-4)GlcNAc
# Summary of the method: as §1
# Gal6P(b1-4)GlcNAc = target: Gal6P(b1-4)GlcNAc
# Summary of the method: as §1
# Gal6S(b1-3)GlcNAc = target: Gal6S(b1-3)GlcNAc
# Summary of the method: as §1
# Gal6S(b1-3)GlcNAc6S = target: Gal6S(b1-3)GlcNAc6S
# Summary of the method: as §1
# Gal6S(b1-4)Glc = target: Gal6S(b1-4)Glc
# Summary of the method: as §1
# Gal6S(b1-4)Glc6S = target: Gal6S(b1-4)Glc6S
# Summary of the method: as §1
# Gal6S(b1-4)GlcNAc = target: Gal6S(b1-4)GlcNAc
# Summary of the method: as §1
# Gal6S(b1-4)GlcNAc6S = target: Gal6S(b1-4)GlcNAc6S
# Summary of the method: as §1
# GalNAc(a1-3)Gal = target: GalNAc(a1-3)Gal
# Summary of the method: as §1
# GalNAc(a1-3)GalNAc = target: GalNAc(a1-3)GalNAc
# Summary of the method: as §1
# [15] = target: GalNAc(a1-3)GalNAc(b1-3)Gal(a1-4)Gal(b1-4)Glc
# Summary of the method: as §1
# [16] = target: GalNAc(a1-3)GalNAc(b1-3)Gal(a1-4)Gal(b1-4)GlcNAc
# Summary of the method: as §1
# GalNAc(b1-3)Gal = target: GalNAc(b1-3)Gal
# Summary of the method: as §1
# [17] = target: GalNAc(b1-3)Gal(a1-4)Gal(b1-4)GlcNAc
# Summary of the method: as §1
# [18] = target: GalNAc(b1-3)Gal(a1-4)Gal(b1-4)GlcNAc(b1-3)Gal(b1-4)Glc
# Summary of the method: as §1
# [19] = target: GalNAc(b1-3)Gal(a1-6)Gal(b1-4)Glc
# Summary of the method: as §1
# GalNAc(b1-3)GalNAc = target: GalNAc(b1-3)GalNAc
# Summary of the method: as §1
# GalNAc(b1-3)GlcNAc = target: GalNAc(b1-3)GlcNAc
# Summary of the method: as §1
# GalNAc(b1-4)Gal(b1-4)Glc = target: GalNAc(b1-4)Gal(b1-4)Glc
# Summary of the method: as §1
# GalNAc(b1-4)GlcNAc = target: GalNAc(b1-4)GlcNAc
# Summary of the method: as §1
binder,measurement,setting,value
B1,glycan array binding signal (z-score),[1],0.423
same,glycan array binding signal (z-score),[2],0.867
same,glycan array binding signal (z-score),[3],0.609
same,glycan array binding signal (z-score),[4],-0.674
same,glycan array binding signal (z-score),[5],-0.442
same,glycan array binding signal (z-score),[6],-0.151
same,glycan array binding signal (z-score),[7],0.23
same,glycan array binding signal (z-score),[8],-0.598
same,glycan array binding signal (z-score),[9],-0.024
same,glycan array binding signal (z-score),[10],0.033
same,glycan array binding signal (z-score),Gal(b1-4)GlcNAc6P,-0.44
same,glycan array binding signal (z-score),Gal(b1-6)Gal,2
same,glycan array binding signal (z-score),Gal3S(b1-3)GalNAc,-0.376
same,glycan array binding signal (z-score),Gal3S(b1-3)GlcNAc,-0.421
same,glycan array binding signal (z-score),[11],-0.233
same,glycan array binding signal (z-score),Gal3S(b1-4)Glc,-0.366
same,glycan array binding signal (z-score),Gal3S(b1-4)Glc6S,-0.85
same,glycan array binding signal (z-score),Gal3S(b1-4)GlcNAc,1.49
same,glycan array binding signal (z-score),[12],0.255
same,glycan array binding signal (z-score),[13],-0.4
same,glycan array binding signal (z-score),[14],0.089
same,glycan array binding signal (z-score),Gal3S4S(b1-4)GlcNAc,-0.688
same,glycan array binding signal (z-score),Gal3S6S(b1-4)GlcNAc,-0.464
same,glycan array binding signal (z-score),Gal3S6S(b1-4)GlcNAc6S,-0.248
same,glycan array binding signal (z-score),Gal4S(b1-4)GlcNAc,-0.694
same,glycan array binding signal (z-score),Gal4S6S(b1-4)GlcNAc,-0.38
same,glycan array binding signal (z-score),Gal6P(b1-4)GlcNAc,-0.453
same,glycan array binding signal (z-score),Gal6S(b1-3)GlcNAc,-0.488
same,glycan array binding signal (z-score),Gal6S(b1-3)GlcNAc6S,-0.036
same,glycan array binding signal (z-score),Gal6S(b1-4)Glc,-0.127
same,glycan array binding signal (z-score),Gal6S(b1-4)Glc6S,0.19
same,glycan array binding signal (z-score),Gal6S(b1-4)GlcNAc,-0.68
same,glycan array binding signal (z-score),Gal6S(b1-4)GlcNAc6S,0.077
same,glycan array binding signal (z-score),GalNAc(a1-3)Gal,1.74
same,glycan array binding signal (z-score),GalNAc(a1-3)GalNAc,-0.108
same,glycan array binding signal (z-score),[15],-0.288
same,glycan array binding signal (z-score),[16],-0.39
same,glycan array binding signal (z-score),GalNAc(b1-3)Gal,-0.584
same,glycan array binding signal (z-score),[17],-0.311
same,glycan array binding signal (z-score),[18],-0.42
same,glycan array binding signal (z-score),[19],-0.526
same,glycan array binding signal (z-score),GalNAc(b1-3)GalNAc,-1.04
same,glycan array binding signal (z-score),GalNAc(b1-3)GlcNAc,-0.408
same,glycan array binding signal (z-score),GalNAc(b1-4)Gal(b1-4)Glc,-0.175
same,glycan array binding signal (z-score),GalNAc(b1-4)GlcNAc,-0.202
